According to patent US20130039912A1 (Sanofi, published 2013):
Values belong to the binder of their own block, whether it stands above or below them.

Assays:
[1] = target: T1, Slit2-D2 (human); assay: ELISA, Slit2-D2 coated, Robo1-Fc Slit2-minus titrated 20 to 0.02 µg/mL
T1 construct: Used purified (ELISA, SPR) and expressed by transient transfection of pXL4911 in HEK293 cells (FACS); also called human Slit2-D2 protein; D2 domain of human Slit2
T1 chain: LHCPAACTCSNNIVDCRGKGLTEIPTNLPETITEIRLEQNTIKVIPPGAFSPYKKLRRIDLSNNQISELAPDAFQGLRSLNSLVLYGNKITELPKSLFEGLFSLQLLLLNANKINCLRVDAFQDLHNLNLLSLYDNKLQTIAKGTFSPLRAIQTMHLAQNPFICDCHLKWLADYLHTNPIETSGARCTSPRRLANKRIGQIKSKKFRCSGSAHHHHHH
Protocol: The D2 domain of the human Slit variants was bound to Immulon-4 enzyme-linked plates (VWR Scientific Inc. Swedesboro, N.J.). A concentration range (from 1 μg/mL to 0.001 μg/mL) of the Robo1-Fc L1 fusion protein was added and than detected using the peroxidase-conjugated goat anti-human IgG antibody (Sigma; ref. A0170, dilution to 1:50 000). Visualization was carried out with the TMB-H₂O₂ substrate (Interchim; ref UP664780) and the measurements were carried out with a plate reader at 450 nm. Similarly, the Robo1-Fc Slit2-minus variant, which is mutated at the level of the Slit2-binding site, was evaluated according to a concentration range (from 20 μg/mL to 0.02 μg/mL) by ELISA assay under the same conditions described above.

[2] = target: T2, Slit2-D1D2 (human, UniProt O94813 31-479); assay: FACS on HEK293 cells transiently expressing Slit2-D1D2
T2 construct: In the FACS assay expressed by transient transfection of pXL4912 in HEK293 cells
T2 sequence: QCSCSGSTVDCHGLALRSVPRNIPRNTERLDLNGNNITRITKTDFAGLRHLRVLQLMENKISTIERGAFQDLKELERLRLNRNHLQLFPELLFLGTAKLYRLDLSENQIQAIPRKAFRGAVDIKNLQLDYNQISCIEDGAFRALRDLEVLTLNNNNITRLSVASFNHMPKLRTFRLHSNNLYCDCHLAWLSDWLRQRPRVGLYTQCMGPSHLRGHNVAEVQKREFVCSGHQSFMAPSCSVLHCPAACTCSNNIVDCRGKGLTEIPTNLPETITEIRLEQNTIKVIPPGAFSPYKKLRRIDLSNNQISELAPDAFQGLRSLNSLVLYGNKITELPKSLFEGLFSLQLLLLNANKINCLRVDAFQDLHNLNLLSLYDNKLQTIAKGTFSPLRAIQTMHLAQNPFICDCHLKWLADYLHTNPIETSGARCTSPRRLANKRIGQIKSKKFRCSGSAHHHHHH
Protocol: (§1) The HEK293 cells described and used as in example 1 were transfected either with a ballast plasmid, having no cDNA that encodes in the mammalian cell, or the pXL4911 plasmid encoding the Slit2-D2 protein, or the pXL4912 plasmid encoding the Slit2-D1D2 protein, or pXL5033 encoding the Slit2-N protein described in example 2, The cells were distributed into 96-well plates 48 hours post-transfection, and the Robo1-Fc protein was added in a concentration range of from 0.01 to 3 mg/L for 30 min at 4° C. The Robo1-Fc protein is either the Robo1-Fc L1 biotherapeutic agent, or the Robo1-Fc Slit2-minus mutant, or the Robo1-Fc heparin-minus mutant. The cells were washed and the anti-human Fc antibody labelled with Alexa 488 (ref: A-11013, Invitrogen) was incubated for 30 min at 4° C. The labelled HEK293 cells are then quantified by FACS (Geomean).

[3] = target: T3, Slit2-N (human, UniProt O94813 31-1121); assay: FACS on HEK293 cells transiently expressing Slit2-N; KD fitted from the FACS titration on HEK293 cells transiently expressing Slit2-N; weak, 43 nM against 1.2 nM for Robo1-Fc L1
T3 construct: In the FACS assay expressed by transient transfection of pXL5033 in HEK293 cells
T3 sequence: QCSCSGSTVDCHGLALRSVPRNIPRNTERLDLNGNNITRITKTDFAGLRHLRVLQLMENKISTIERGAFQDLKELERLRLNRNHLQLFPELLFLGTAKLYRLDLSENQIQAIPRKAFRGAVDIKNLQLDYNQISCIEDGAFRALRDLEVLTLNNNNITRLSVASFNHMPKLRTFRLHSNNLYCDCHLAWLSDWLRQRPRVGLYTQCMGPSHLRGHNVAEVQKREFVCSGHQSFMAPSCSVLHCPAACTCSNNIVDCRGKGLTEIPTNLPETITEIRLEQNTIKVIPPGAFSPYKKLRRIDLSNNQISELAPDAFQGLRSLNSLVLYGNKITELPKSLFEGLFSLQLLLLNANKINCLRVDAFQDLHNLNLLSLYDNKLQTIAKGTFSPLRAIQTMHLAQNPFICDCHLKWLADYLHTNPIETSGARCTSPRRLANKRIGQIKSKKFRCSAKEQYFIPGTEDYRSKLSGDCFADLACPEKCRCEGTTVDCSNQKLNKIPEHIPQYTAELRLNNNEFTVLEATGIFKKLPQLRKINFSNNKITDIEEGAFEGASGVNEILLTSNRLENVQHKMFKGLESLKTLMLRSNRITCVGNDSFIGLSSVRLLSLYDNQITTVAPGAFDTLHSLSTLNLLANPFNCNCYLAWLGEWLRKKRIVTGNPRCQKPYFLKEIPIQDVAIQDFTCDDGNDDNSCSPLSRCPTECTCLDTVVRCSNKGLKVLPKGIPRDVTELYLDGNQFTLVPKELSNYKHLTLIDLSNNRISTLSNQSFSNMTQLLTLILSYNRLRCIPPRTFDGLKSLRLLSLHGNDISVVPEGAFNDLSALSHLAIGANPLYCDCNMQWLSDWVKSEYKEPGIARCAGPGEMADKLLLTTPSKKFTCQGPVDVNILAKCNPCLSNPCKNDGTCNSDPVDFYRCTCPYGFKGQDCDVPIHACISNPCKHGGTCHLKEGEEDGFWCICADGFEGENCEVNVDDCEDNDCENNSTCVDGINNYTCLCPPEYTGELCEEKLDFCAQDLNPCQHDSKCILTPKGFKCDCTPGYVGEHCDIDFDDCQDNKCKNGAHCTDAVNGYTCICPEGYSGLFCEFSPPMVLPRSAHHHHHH
Protocol: as §1

[4] = target: T1, Slit2-D2; assay: ELISA, human Slit2-D2 coated on the plate, detection with peroxidase-conjugated anti-human IgG, absorbance at 450 nm
Protocol: The human Slit2-D2 protein was bound to Immulon-4 enzyme-linked plates (VWR Scientific Inc. Swedesboro, N.J.). A concentration range (from 20 μg/mL to 0.02 μg/mL) of the Robo1-Fc L1 and Robo1-Fc L2 variants was added and then detected by means of the peroxidase-conjugated goat anti-human IgG antibody (Sigma; ref. A0170, dilution to 1:50 000). Visualization was carried out with the TMB-H₂O₂ substrate (Interchim; ref UP664780) and the measurements were carried out with a plate reader at 450 nm. […] [0083] c. Evaluation of the interaction of the Robo1-Fc protein with the human variants of the Slit family, namely Slit1 and Slit3

[5] = target: T1, Slit2-D2; assay: ELISA, Slit2-D2 coated, Robo1-Fc L3 titrated 1 to 0.001 µg/mL
Protocol: The human Slit2-D2 protein was bound to Immulon-4 enzyme-linked plates (VWR Scientific Inc. Swedesboro, N.J.). A concentration range (from 1 μg/mL to 0.001 μg/mL) of the Robot-Fc L3 fusion protein was added and then detected by means of the peroxidase-conjugated goat anti-human IgG antibody (Sigma; ref. A0170, dilution to 1:50 000). The visualization was carried out with the TMB-H₂O₂ substrate (Interchim; ref UP664780) and the measurements were carried out with a plate reader at 450 nm.

- EC50 [1]: 17.8 µg/mL
B1: Robo1-Fc Slit2-minus (Fc fusion)
chain: SRLRQEDFPPRIVEHPSDQIVSKGEPATLNCKAEGRPTPTIEWYKGGERVETDKDDPRSHRMLLPSGSLYFLRIVHGRKSRPDEGVYVCVARNYLGEAVSHNASLEVAILRDDFRQNPSDVMVAVGEPAVMECQPPRGHPEPTISWKKDGSPLDDKDERITIRGGKLMITYTRKSDAGKYVCVGTNMVGERESEVAELTVLERPSFV[here human IgG4 Fc with changes without letters]
notes: also called Robo1-Fc Slit2-minus mutant; Robo1-Fc Slit2-minus variant

- Kd [2]: 41 nM
- Kd [3]: 43 nM
B2: Robo1-Fc heparin-minus (Fc fusion)
chain: SRLRQEDFPPRIVEHPSDLIVSKGEPATLNCKAEGRPTPTIEWYKGGERVETDKDDPRSHRMLLPSGSLFFLRIVHGAASRPDEGVYVCVARNYLGEAVSHNASLEVAILRDDFRQNPSDVMVAVGEPAVMECQPPRGHPEPTISWKKDGSPLDDKDERITIRGGKLMITYTRKSDAGKYVCVGTNMVGERESEVAELTVLERPSFV[here human IgG4 Fc with changes without letters]
notes: also called Robo1-Fc heparin-minus mutant; Robot-Fc heparin-minus

- binding result [4]: binds
B3: Robo1-Fc L2 (Fc fusion)
chain: SRLRQEDFPPRIVEHPSDLIVSKGEPATLNCKAEGRPTPTIEWYKGGERVETDKDDPRSHRMLLPSGSLFFLRIVHGRKSRPDEGVYVCVARNYLGEAVSHNASLEVAILRDDFRQNPSDVMVAVGEPAVMECQPPRGHPEPTISWKKDGSPLDDKDERITIRGGKLMITYTRKSDAGKYVCVGTNMVGERESEVAELTVLGGGGS[here human IgG4 Fc with changes without letters]

- EC50 [5]: 0.17 µg/mL
B4: Robo1-Fc L3 (Fc fusion)
chain: LRQEDFPPRIVEHPSDLIVSKGEPATLNCKAEGRPTPTIEWYKGGERVETDKDDPRSHRMLLPSGSLFFLRIVHGRKSRPDEGVYVCVARNYLGEAVSHNASLEVAILRDDFRQNPSDVMVAVGEPAVMECQPPRGHPEPTISWKKDGSPLDDKDERITIRGGKLMITYTRKSDAGKYVCVGTNMVGERESEVAELTVLERPSFV[here human IgG4 Fc with changes without letters]
notes: also called Robot-Fc L3
